The list shows a part of the results.
B1: PhoQ; a variant is named by its letters at X, in order, P23837 (parent)
chain: MKKLLRLFFPLSLRVRFLLATAAVVLVLSLAYGMVALIGYSVSFDKTTFRLLRGESNLFYTLAKWENNKLHVELPENIDKQSPTMTLIYDENGQLLWAQRDVPWLMKMIQPDWLKSNGFHEIEADVNDTSLLLSGDHSIQQQLQEVREDDDDAEMTHSVAVNVYPATSRMPKLTIVVVDTIPVELKSSYMVWSWFIYVLSANLLLVIPLLWVAAWWSLRPIEALAKEVRELEEHNRELLNPATTRELTSLVRNLNRLLKSERERYDKYRTTLTDLTHSLKTPLXXLQXXLRSLRSEKMSVSDAEPVMLEQISRISQQIGYYLHRASMRGGTLLSRELHPVAPLLDNLTSALNKVYQRKGVNISLDISPEISFVGEQNDFVEVMGNVLDNACKYCLEFVEISARQTDEHLYIVVEDDGPGIPLSKREVIFDRGQRVDTLRPGQGVGLAVAREITEQYEGKIVAGESMLGGARMEVIFGRQHSAPKDE

Variants of: B1
Assay: enrichment ratio after two sorts for PhoP signalling (ratio (wild type AVST 3.29)); higher = more functional
Details: with PhoP (E. coli)
With MKHK the enrichment ratio was no more than 0.25.
For DCHE, the enrichment ratio was no more than 0.25.
TVDV showed an enrichment ratio of no more than 0.25.
In the case of EREM, the enrichment ratio is reported as no more than 0.25.
For GLVK, the enrichment ratio was no more than 0.25.
IFYW was tested, and the enrichment ratio was no more than 0.25.
In the case of YAQA, the enrichment ratio is reported as no more than 0.25.
Work on RHQW yielded an enrichment ratio of no more than 0.25.
In the case of RCDC, the enrichment ratio is reported as no more than 0.25.
PYTR showed an enrichment ratio of no more than 0.25.
For VPMV, the enrichment ratio was no more than 0.25.
In the case of FLGW, the enrichment ratio is reported as no more than 0.25.
Work on SGVV yielded an enrichment ratio of 10.1.
In the case of FWED, the enrichment ratio is reported as no more than 0.25.
For RFLF, the enrichment ratio was no more than 0.25.
For ELGP, the enrichment ratio was no more than 0.25.
With GGHD the enrichment ratio was no more than 0.25.
QERV was tested, and the enrichment ratio was no more than 0.25.
KYSM was tested, and the enrichment ratio was no more than 0.25.
Work on KLGP yielded an enrichment ratio of no more than 0.25.
THPC was tested, and the enrichment ratio was no more than 0.25.
AIHD showed an enrichment ratio of no more than 0.25.
PDSN showed an enrichment ratio of no more than 0.25.
Variant FRDW has an enrichment ratio of no more than 0.25.
VQTI showed an enrichment ratio of no more than 0.25.
Variant LECR has an enrichment ratio of 0.789.
In the case of HQAH, the enrichment ratio is reported as no more than 0.25.
With SAYN the enrichment ratio was no more than 0.25.
For DCEH, the enrichment ratio was no more than 0.25.
Work on SYRS yielded an enrichment ratio of no more than 0.25.
Work on SCFD yielded an enrichment ratio of no more than 0.25.
For WYGK, the enrichment ratio was no more than 0.25.
Variant FTRM has an enrichment ratio of no more than 0.25.
With YCFI the enrichment ratio was no more than 0.25.
Variant QFFR has an enrichment ratio of no more than 0.25.
With RSFL the enrichment ratio was no more than 0.25.
VIQP showed an enrichment ratio of no more than 0.25.
AEVI gave an enrichment ratio of 17.5.
With RVSV the enrichment ratio was no more than 0.25.
LCSD was tested, and the enrichment ratio was no more than 0.25.
For HNVW, the enrichment ratio was no more than 0.25.
Variant FRMN has an enrichment ratio of no more than 0.25.
EYSK showed an enrichment ratio of no more than 0.25.
With IVCT the enrichment ratio was no more than 0.25.
TEAQ showed an enrichment ratio of 28.
LDHG gave an enrichment ratio of no more than 0.25.
Variant ECTH has an enrichment ratio of no more than 0.25.
TEQH was tested, and the enrichment ratio was 3.62.
SLGQ gave an enrichment ratio of no more than 0.25.
Work on ISNE yielded an enrichment ratio of no more than 0.25.
ELYT gave an enrichment ratio of no more than 0.25.
In the case of QDSD, the enrichment ratio is reported as no more than 0.25.
Work on LSMS yielded an enrichment ratio of 0.457.
YGQE gave an enrichment ratio of no more than 0.25.
With HSDY the enrichment ratio was no more than 0.25.
In the case of GEWS, the enrichment ratio is reported as no more than 0.25.
Work on YPIM yielded an enrichment ratio of no more than 0.25.
With AIWN the enrichment ratio was no more than 0.25.
FSDG showed an enrichment ratio of no more than 0.25.
For YYAM, the enrichment ratio was no more than 0.25.
Work on ELIV yielded an enrichment ratio of no more than 0.25.
DEMS showed an enrichment ratio of no more than 0.25.
Work on APVG yielded an enrichment ratio of no more than 0.25.
DGSG showed an enrichment ratio of no more than 0.25.
RIIT was tested, and the enrichment ratio was no more than 0.25.
Variant PRQC has an enrichment ratio of no more than 0.25.
Variant HEHY has an enrichment ratio of no more than 0.25.
HWVG was tested, and the enrichment ratio was no more than 0.25.
In the case of RMQP, the enrichment ratio is reported as no more than 0.25.
For NFCF, the enrichment ratio was no more than 0.25.
Variant HDGS has an enrichment ratio of no more than 0.25.
In the case of QCYP, the enrichment ratio is reported as no more than 0.25.
IEEI was tested, and the enrichment ratio was no more than 0.25.
MMFA showed an enrichment ratio of no more than 0.25.
Variant QKVV has an enrichment ratio of no more than 0.25.
For ASYL, the enrichment ratio was 3.41.
Variant TKHV has an enrichment ratio of no more than 0.25.
With WGDF the enrichment ratio was no more than 0.25.
GQSW was tested, and the enrichment ratio was no more than 0.25.
In the case of AFNR, the enrichment ratio is reported as no more than 0.25.
QGIM was tested, and the enrichment ratio was no more than 0.25.
With DPNK the enrichment ratio was no more than 0.25.
In the case of FYVQ, the enrichment ratio is reported as no more than 0.25.
For YSFL, the enrichment ratio was 1.05.
APFC showed an enrichment ratio of no more than 0.25.
With KRGF the enrichment ratio was no more than 0.25.
Variant LNWT has an enrichment ratio of no more than 0.25.
With GPTV the enrichment ratio was no more than 0.25.
SYWG showed an enrichment ratio of no more than 0.25.
Work on PSGT yielded an enrichment ratio of no more than 0.25.
Work on LIMM yielded an enrichment ratio of no more than 0.25.
Work on EATP yielded an enrichment ratio of no more than 0.25.
DPCL showed an enrichment ratio of no more than 0.25.
HVHP gave an enrichment ratio of no more than 0.25.
Work on NMHT yielded an enrichment ratio of no more than 0.25.
In the case of GHDL, the enrichment ratio is reported as no more than 0.25.
With APES the enrichment ratio was no more than 0.25.
Work on MYWM yielded an enrichment ratio of no more than 0.25.
For LVKH, the enrichment ratio was no more than 0.25.
QANY was tested, and the enrichment ratio was no more than 0.25.
NIKK gave an enrichment ratio of no more than 0.25.
RAGP gave an enrichment ratio of no more than 0.25.
WPDG was tested, and the enrichment ratio was no more than 0.25.
Variant QGLD has an enrichment ratio of no more than 0.25.
In the case of RFKF, the enrichment ratio is reported as no more than 0.25.
In the case of KLMG, the enrichment ratio is reported as no more than 0.25.
Work on ELFP yielded an enrichment ratio of no more than 0.25.
With MPFM the enrichment ratio was no more than 0.25.
With DLVT the enrichment ratio was no more than 0.25.
In the case of MAVG, the enrichment ratio is reported as no more than 0.25.
Work on NPTC yielded an enrichment ratio of no more than 0.25.
For TCMC, the enrichment ratio was 24.2.
For YSYP, the enrichment ratio was no more than 0.25.
MHQG showed an enrichment ratio of no more than 0.25.
Variant LIFI has an enrichment ratio of no more than 0.25.
YAMP gave an enrichment ratio of no more than 0.25.
WVWL gave an enrichment ratio of no more than 0.25.
For AYRL, the enrichment ratio was no more than 0.25.
Variant LYKW has an enrichment ratio of no more than 0.25.
Work on YGQL yielded an enrichment ratio of no more than 0.25.
EILN gave an enrichment ratio of no more than 0.25.
Work on MCFQ yielded an enrichment ratio of 1.15.
With THMF the enrichment ratio was 9.68.
DVYS was tested, and the enrichment ratio was no more than 0.25.
GSTW showed an enrichment ratio of no more than 0.25.
Work on WFSK yielded an enrichment ratio of no more than 0.25.
For KYSF, the enrichment ratio was no more than 0.25.
HITK gave an enrichment ratio of no more than 0.25.
Work on LVNA yielded an enrichment ratio of no more than 0.25.
Work on SQKI yielded an enrichment ratio of no more than 0.25.
Variant EEGT has an enrichment ratio of no more than 0.25.
Work on AEIC yielded an enrichment ratio of 4.13.
FAAP gave an enrichment ratio of no more than 0.25.
LYLN gave an enrichment ratio of no more than 0.25.
Variant YTIS has an enrichment ratio of no more than 0.25.
In the case of AAWF, the enrichment ratio is reported as no more than 0.25.
With VHPL the enrichment ratio was no more than 0.25.
In the case of FWSW, the enrichment ratio is reported as no more than 0.25.
Variant TKTC has an enrichment ratio of 3.73.
Work on ERHH yielded an enrichment ratio of no more than 0.25.
Variant LLNQ has an enrichment ratio of no more than 0.25.
For RIVM, the enrichment ratio was no more than 0.25.
With MDFG the enrichment ratio was no more than 0.25.
MGAV gave an enrichment ratio of 5.2.
HPCY showed an enrichment ratio of no more than 0.25.
Work on QYIR yielded an enrichment ratio of no more than 0.25.
ADHG showed an enrichment ratio of no more than 0.25.
ANAM showed an enrichment ratio of 32.2.
NFAG was tested, and the enrichment ratio was no more than 0.25.
Work on QVCL yielded an enrichment ratio of no more than 0.25.
In the case of WEDY, the enrichment ratio is reported as no more than 0.25.
With DGIG the enrichment ratio was no more than 0.25.
For GYSC, the enrichment ratio was no more than 0.25.
In the case of VEGH, the enrichment ratio is reported as no more than 0.25.
With DDKC the enrichment ratio was no more than 0.25.
With KVKY the enrichment ratio was no more than 0.25.
For SHLR, the enrichment ratio was no more than 0.25.
HHST gave an enrichment ratio of no more than 0.25.
In the case of LRRY, the enrichment ratio is reported as no more than 0.25.
DAGS gave an enrichment ratio of no more than 0.25.
With RCYR the enrichment ratio was no more than 0.25.
With IYGG the enrichment ratio was no more than 0.25.
Variant AQGQ has an enrichment ratio of 7.
NWWI was tested, and the enrichment ratio was no more than 0.25.
Variant ELIW has an enrichment ratio of no more than 0.25.
For WKKP, the enrichment ratio was no more than 0.25.
In the case of FDEM, the enrichment ratio is reported as no more than 0.25.
In the case of PRVQ, the enrichment ratio is reported as no more than 0.25.
Work on KKHS yielded an enrichment ratio of no more than 0.25.
Variant ISGQ has an enrichment ratio of no more than 0.25.
NIHY was tested, and the enrichment ratio was no more than 0.25.
Work on TMSY yielded an enrichment ratio of 2.27.
VFNQ showed an enrichment ratio of no more than 0.25.
Work on RFTF yielded an enrichment ratio of no more than 0.25.
AHVS showed an enrichment ratio of no more than 0.25.
HHVM showed an enrichment ratio of no more than 0.25.
With LGVC the enrichment ratio was no more than 0.25.
With PFSQ the enrichment ratio was no more than 0.25.
Work on VEGE yielded an enrichment ratio of no more than 0.25.
RYNC gave an enrichment ratio of no more than 0.25.
In the case of PRDE, the enrichment ratio is reported as no more than 0.25.
Variant TPNW has an enrichment ratio of no more than 0.25.
RKTV was tested, and the enrichment ratio was no more than 0.25.
With LKSV the enrichment ratio was 0.61.
Work on MSYW yielded an enrichment ratio of no more than 0.25.
Work on GFPR yielded an enrichment ratio of no more than 0.25.
WVTP gave an enrichment ratio of no more than 0.25.
For FVRY, the enrichment ratio was no more than 0.25.
Variant KEFE has an enrichment ratio of no more than 0.25.
QRVP was tested, and the enrichment ratio was no more than 0.25.
LVMR showed an enrichment ratio of no more than 0.25.
In the case of KVCA, the enrichment ratio is reported as no more than 0.25.
For HKAL, the enrichment ratio was 0.299.
RMIS gave an enrichment ratio of no more than 0.25.
FFNH gave an enrichment ratio of no more than 0.25.

Source: a collection of fitness landscapes (doi:10.1126/science.1257360)
